Here are results for 25 compounds from PubChem BioAssay (NCATS).

One may read the AC50 as the midpoint of the concentration-response curve, whichever way the signal moves.

Each structure is given as a SMILES string. Some of the results follow. These are further read-outs of the screen, such as a control signal, another cell line or another target. No call is given for them. The list favours compounds with an active or inconclusive main result. Words in brackets tell the shape of the fitted curve; partial curves, single points and poor fits give uncertain potencies.

The nature of the test: qHTS Assay for Lipid Storage Modulators (AID 1519). The conditions noted are these: Drosophila S3 cells, BODIPY lipid droplet/cell ratio, laser cytometry, cells loaded with oleic acid. In a few lines: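 Cells seeded at 5,000 per well were treated with compounds over a concentration series and loaded with oleic acid (400 uM, as added). Lipid droplet fluorescence (488 nm excitation, 500-530 nm channel) was read by laser-scanning cytometry and normalized to 20 uM Triacsin C.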
On the technique in general: qHTS replaces the single test concentration by a dilution series.

Setting [1] is: measured here: cell count channel max response.
Where [2] appears, read: measured here: lipid (BODIPY) channel AC50.
The mark [3] stands for this setting: measured here: lipid channel max response.
The mark [4] stands for this setting: measured here: cell number channel AC50.
Tags describe the fitted curve by direction and shape.

With `O=C(c1ccco1)N1CCC2(CC1)CN(c1cccc(-c3ccccc3)c1)C2`, the max response by setting is: under setting [1], 2.45%; under setting [3], 2.72%. Besides, under setting [2], the AC50 was 7.08 µM [rising, single point].

For the compound `CCCCOc1ccc(C(=O)CCN2CCCCC2)cc1`, the max response reads like this: under setting [1], -22.9%; under setting [3], -32.7%. Further, the concentration at half-maximal activity (AC50) under setting [2] is 14.1 µM [falling, single point].

For `COc1ccc2oc(-c3ccc(O)cc3)cc(=O)c2c1`, the max response amounted to 53.5% under setting [1] and 64.9% under setting [3].

Take `O=C(c1cccc(F)c1)N1CCC2(CC1)CCN(c1ncccn1)CC2`: the max response under setting [1] came out at 3.93% and the max response under setting [3] is 19.3%. In addition, the AC50 under setting [2] is 0.355 µM [rising, full curve, poor fit].

As for `O=C(O)[C@H]1C(=CCO)O[C@H]2CC(=O)N12`, the max response under setting [1] came out at 22.8% and the max response under setting [3] came to 31.8%. For the same compound, the AC50 under setting [2] was 20 µM [rising, single point].

With `CN1CCN(c2nc(-c3ccc(N(C)C)cc3)nc3ccccc23)CC1`, the max response under setting [1] turned out to be 16.6% and the max response under setting [3] stood at 30.1%. Besides, the AC50 under setting [2] was 2.82 µM [rising, full curve, poor fit].

Regarding `CCCCCCCCCCC/C=C\C(C)(C)/C=C\CCCC(=O)O`, the max response by setting is: under setting [1], 45.3%; under setting [3], 48.5%.

As to `Cn1c(=O)c(-c2ccc(F)cc2)nc2cnc(Nc3ccccc3)nc21`, the max response came to 31.8% under setting [1] and 6.2% under setting [3]. Besides, the half-maximal activity concentration (AC50) under setting [4] is 0.00794 µM [rising, full curve, poor fit].

In the case of `Cn1cccc1C(=O)N1CCC2(CC1)CCN(c1ncccn1)CC2`, the max response runs as follows: under setting [1], 14.5%; under setting [3], 28.6%. Under setting [2], the AC50 was 4.47 µM [rising, full curve, poor fit].

For `COc1ccccc1-c1ccc2ncnc(NCc3cccnc3)c2c1`, the max response was -20.1% under setting [1] and -30.6% under setting [3]. Under setting [2], the AC50 is 39.8 µM [falling, single point].

As for `O=c1c(CCc2ccccc2)nc2cnc(Oc3ccccc3)nc2n1C[C@H]1CCCO1`, the max response is, setting by setting: under setting [1], 13.8%; under setting [3], -0.512%. The AC50 under setting [2] is 0.1 µM [rising, full curve].

Regarding `O=C(Nc1cccc(F)c1)N1CCCC2(CCN(C(=O)c3cnccn3)CC2)C1`, the max response stood at 10.5% under setting [1] and 20.5% under setting [3]. Also, the AC50 under setting [4] is 7.08 µM [rising, single point].

As for `COc1ccc(C(=O)N2CCC3(CCN(C(=O)Nc4cccc(C#N)c4)CC3)CC2)cc1`, the max response is, setting by setting: under setting [1], -5.79%; under setting [3], -0.852%. Further, the half-maximal activity concentration (AC50) under setting [2] is 3.98 µM [rising, partial curve].

For `Cc1cc(C)cc(OCC2CNC(=O)O2)c1` (stereo not drawn), the max response under setting [1] is 13.3% and the max response under setting [3] stood at 30.8%. Further, the AC50 under setting [2] is 39.8 µM [rising, single point].

As to `CS(=O)(=O)Nc1cccc(-c2ccc3ncnc(NCc4cccs4)c3c2)c1`, the max response under setting [1] came out at 4.64% and the max response under setting [3] is -0.325%. In addition, the AC50 under setting [2] is 3.98 µM [rising, partial curve, poor fit].

In the case of `CCOC(=O)C1=C[C@@]2(CC)CCCN3CCc4c(n1c1ccccc41)C32` (stereo partly drawn), the max response under setting [1] is 12.2% and the max response under setting [3] was 32%. The concentration at half-maximal activity (AC50) under setting [2] was 39.8 µM [rising, single point].

On to `Cc1cc(O)c(C)c(O)c1C(=O)O`, for which the max response worked out at 21.4% under setting [1] and 34.1% under setting [3]. Also, the AC50 under setting [2] was 39.8 µM [rising, single point].

Consider `CC1(C)S[C@H]2[C@@H](NC(=O)C(N)c3ccccc3)C(=O)N2[C@H]1C(=O)O` (stereo partly drawn), for which the max response was -9.63% under setting [1] and -8.79% under setting [3]. Moreover, the concentration at half-maximal activity (AC50) under setting [2] is 63.1 µM [falling, single point].

Consider `COc1ccc(-n2c(=O)c(-c3cc(F)cc(F)c3)nc3cnc(N4CCOCC4)nc32)cc1`, for which the max response was determined as 28.6% under setting [1] and 35.2% under setting [3]. Moreover, the half-maximal activity concentration (AC50) under setting [2] was 3.55 µM [rising, full curve, poor fit].

Turning to `O=S(=O)(c1ccccc1)N1CCC2(CCCN(C(c3ccccc3)c3ccccc3)C2)CC1`, the max response by setting is: under setting [1], 18.6%; under setting [3], 31.8%. Besides, the AC50 under setting [2] is 10 µM [rising, partial curve, poor fit].

With `O=C(c1ccco1)N1CCC2(CCCN(c3cccc(-c4ccccc4)c3)C2)CC1`, the max response under setting [1] was -4.43% and the max response under setting [3] is -52%. Further, under setting [2], the half-maximal activity concentration (AC50) is 39.8 µM [falling, single point].

On to `CC[C@H](C)[C@@H]1O[C@]2(CC[C@@H]1C)C[C@H]1C[C@H](CC=C(C)[C@@H](O[C@@H]3C[C@H](OC)[C@H](O[C@@H]4C[C@H](OC)[C@H](O)[C@H](C)O4)[C@H](C)O3)[C@@H](C)C=CC=C3CO[C@@H]4[C@@H](O)C(C)=C[C@@H](C(=O)O1)[C@]34O)O2`, for which the max response under setting [1] was -61.3% and the max response under setting [3] was -86%. In addition, the AC50 under setting [4] is 15.8 µM [falling, single point].

As for `COCCNc1ncnc2ccc(-c3ccccc3OC)cc12`, the max response was -11.9% under setting [1] and -24.9% under setting [3]. The half-maximal activity concentration (AC50) under setting [2] was 1.58 µM [rising, partial curve, poor fit].

For `CS(=O)(=O)Nc1cccc(-c2cncnc2-n2ccnc2)c1`, the max response by setting is: under setting [1], 26.4%; under setting [3], 36.2%. Moreover, the AC50 under setting [2] is 2.24 µM [rising, full curve].

As to `COCCn1c(=O)cnc2cnc(N(C)C)nc21`, the max response runs as follows: under setting [1], 31.2%; under setting [3], 40.4%. Also, under setting [4], the half-maximal activity concentration (AC50) is 28.2 µM [rising, single point].
